These results are taken from the antibiotic and cytotoxicity screens of Wong et al. (2023).

The list shows a part of the results.

In this test the test system is HepG2. Briefly: cytotoxicity call (relative viability < 0.9). The note with it: 10 µM.
For `C[C@@H]1CCCCO[C@H](CN(C)Cc2ccncc2)[C@H](C)CN([C@@H](C)CO)C(=O)c2cc(NC(=O)Cc3ccccc3)ccc2O1`, the cytotoxicity call was “inactive”. Turning to `C[C@@H]1CN([C@H](C)CO)C(=O)CCCn2nncc2CO[C@H]1CN(C)S(=O)(=O)c1ccc(Oc2ccccc2)nc1`, the cytotoxicity call is “inactive”.

Take `C[C@@H]1CCCCO[C@@H](CN(C)C(=O)Nc2ccc(F)cc2)[C@@H](C)CN([C@@H](C)CO)C(=O)c2cc(NC(=O)C3CCCCC3)ccc2O1`: the cytotoxicity call was “inactive”. Turning to `O=C(CN1CCOCC1)N[C@H]1CC[C@H](CCn2cc(C3CC3)nn2)O[C@H]1CO`, the cytotoxicity call was “inactive”. Regarding `CO[C@@H]1CN(C)C(=O)c2ccc(NS(C)(=O)=O)cc2OC[C@@H](C)N(C(=O)CN(C)C)C[C@H]1C`, the cytotoxicity call is “inactive”. With `CN1C2=CC(=O)/C(=N\NC(N)=O)C=C2C[C@H]1S(=O)(=O)O` the entry was “inactive”; with `CC=Cc1ccc2n(c1=O)C[C@H]1[C@H](CO)[C@@H](C(=O)NCC3CC3)[C@@H]2N1S(=O)(=O)c1cn(C)cn1`, “inactive”; with `OCc1ccccc1-n1cncn1`, “inactive”.

For `COc1ccc(C(=O)Nc2ccc3c(c2)C(=O)N(C)[C@@H]2CC[C@H](CC(=O)NCC4CC4)O[C@H]2CO3)cc1`, the cytotoxicity call was “active”. With `Cc1cc(C)c2cc3c(nc2c1)NCC3`, the cytotoxicity call was “inactive”. With `C[C@H](CO)N1C[C@H](C)[C@H](CN(C)C(=O)Nc2ccccc2)OCCCC[C@H](C)Oc2ccc(NC(=O)Nc3ccccc3)cc2C1=O` the entry was “inactive”; with `C[C@H]1CN([C@@H](C)CO)C(=O)c2cc(NS(=O)(=O)c3ccc(Cl)cc3)ccc2O[C@@H]1CN(C)Cc1ccc(-c2ccccc2)cc1`, “inactive”.

As for `C[C@H]1CN([C@@H](C)CO)C(=O)Cc2cc(NC(=O)NC3CCCCC3)ccc2O[C@H]1CN(C)Cc1ccc(Oc2ccccc2)cc1`, the cytotoxicity call was “active”. The same measure for `Cc1ccc(S(=O)(=O)N[C@H](C(=O)NCCn2cc(-c3cccc(/C=C/C(=O)NO)c3)nn2)C(C)C)cc1`: “inactive”; for `C[C@H]1CN([C@@H](C)CO)C(=O)c2cccc(NC(=O)C3CCOCC3)c2O[C@H]1CN(C)Cc1ccc2c(c1)OCO2`: “inactive”. The same measure for `c1ccc(C2C3=C(CCCC3)SC3=C2CCCC3)cc1`: “inactive”; for `Cc1ccc(S(=O)(=O)N(C)C[C@@H]2Oc3ccc(NC(=O)c4ccncc4)cc3CC(=O)N([C@@H](C)CO)C[C@@H]2C)cc1`: “inactive”; for `C[C@@H]1CN([C@H](C)CO)C(=O)c2cc(NC(=O)Nc3ccc(C(F)(F)F)cc3)ccc2O[C@@H](C)CCCCO[C@H]1CN(C)Cc1ccccc1`: “active”. With `COC(=O)c1cn(CC(=O)O)nn1` the entry was “inactive”. As for `CC(C)C(=O)O`, the cytotoxicity call was “inactive”. With `C[C@H]1CN([C@@H](C)CO)C(=O)c2cc(NC(=O)Nc3ccccc3)ccc2O[C@H]1CN(C)Cc1ccc(C(F)(F)F)cc1` the entry was “inactive”. Consider `C[C@@H]1CN([C@@H](C)CO)C(=O)c2cc(NC(=O)c3ccncc3)ccc2O[C@@H]1CN(C)S(=O)(=O)c1ccc(F)cc1`, for which the cytotoxicity call is “inactive”. With `COc1cc([C@H]2OC[C@](O)(Cc3ccc(O[C@@H]4O[C@H](CO)[C@@H](O)[C@H](O)[C@H]4O)c(OC)c3)[C@@H]2CO)ccc1O` the entry was “inactive”; with `CC(C)NC(=O)Nc1ccc2c(c1)C(=O)N([C@H](C)CO)C[C@H](C)[C@H](CN(C)S(=O)(=O)c1cn(C)cn1)OCCCC[C@@H](C)O2`, “inactive”. `C[C@H](CO)N1C[C@H](C)[C@H](CN(C)S(=O)(=O)c2ccc(F)cc2)Oc2ccc(NC(=O)c3ccncc3)cc2CC1=O`: the cytotoxicity call is “inactive”.

On to `C[C@@H]1CN([C@H](C)CO)C(=O)c2cc(NC(=O)NC3CCCCC3)ccc2O[C@@H](C)CCCCO[C@@H]1CN(C)C(=O)C1CCCCC1`, for which the cytotoxicity call was “inactive”. The same measure for `CC(C)(C)S(=O)N1Cc2cc(C(=O)NCc3ccc4c(c3)OCO4)nc(-c3cccc(C#CCC4CCCC4)c3)c2[C@@H]1CCO` (stereo not given in full): “inactive”; for `CCn1c(=O)c(-c2cc(NC(=O)Nc3ccccc3)c(F)cc2Br)cc2cnc(NC)cc21`: “active”; for `Cn1c(=O)c2c(nc(NCCN)n2C)n(C)c1=O`: “inactive”. The same measure for `COc1ccc(CN(C)C[C@H]2Oc3ccc(NC(=O)CCN4CCOCC4)cc3CC(=O)N([C@H](C)CO)C[C@@H]2C)cc1`: “inactive”.

Turning to `C[C@@H]1CCCCO[C@@H](CN(C)C(=O)C2CCCCC2)[C@@H](C)CN([C@H](C)CO)C(=O)c2cc(NC(=O)Cc3ccccc3)ccc2O1`, the cytotoxicity call was “inactive”. With `C[C@@H]1CN([C@H](C)CO)C(=O)c2cc(NC(=O)c3ccccc3)ccc2O[C@@H](C)CCCCO[C@H]1CN(C)Cc1ccc(C(=O)O)cc1` the entry was “inactive”. The same measure for `COc1ccccc1NC(=O)N(C)C[C@H]1Oc2ncc(Br)cc2C(=O)N([C@H](C)CO)C[C@@H]1C`: “inactive”; for `Cc1noc(C)c1NC(=O)N(C)C[C@@H]1OCCCC[C@H](C)Oc2ccc(NC(=O)C3CCCCC3)cc2C(=O)N([C@H](C)CO)C[C@@H]1C`: “inactive”.

In the case of `O=C(C[C@H]1C=C[C@H](NS(=O)(=O)c2ccc(F)cc2)[C@H](CO)O1)N1CCC(Cc2ccccc2)CC1`, the cytotoxicity call was “inactive”. The same measure for `C[C@@H]1CN([C@@H](C)CO)C(=O)c2cc(C#CC3(O)CCCC3)cnc2O[C@H]1CN(C)S(C)(=O)=O`: “inactive”; for `C[C@@H]1CN([C@H](C)CO)S(=O)(=O)c2ccc(C#Cc3cccc(F)c3)cc2O[C@@H]1CN(C)C(=O)CN1CCOCC1`: “inactive”. With `C[C@@H]1CN([C@@H](C)CO)C(=O)c2cc(NS(C)(=O)=O)ccc2O[C@@H]1CN(C)S(=O)(=O)c1ccccc1`, the cytotoxicity call is “inactive”. In the case of `C[C@H]1CN([C@@H](C)CO)S(=O)(=O)c2ccc(C#Cc3cccc(F)c3)cc2O[C@H]1CN(C)S(=O)(=O)c1ccccc1F`, the cytotoxicity call was “inactive”.

In the case of `C[C@@H]1CN([C@H](C)CO)S(=O)(=O)c2ccc(C#CC3CC3)cc2O[C@@H]1CN(C)C(=O)c1cccc(F)c1`, the cytotoxicity call is “inactive”.
